The campaign covered roughly 320,000 compounds. About 200 (0.062%) were called active. Inconclusive means that the source gave no clear call. Such entries were picked first, then a sample of the others. The call rests on the fitted dose curve; in most records, active means well fitted activation curve with a large enough effect; inconclusive means small, poorly fitted or top-dose-only effect; inactive means no such curve, though single readings can be large or run the other way. Potencies of inconclusive entries are left out as doubtful fits.
assay: qHTS assay for re-activators of p53 using a Luc reporter; conditions: H1299 p53-A138V BP100-luciferase reporter, luminescence, 24 h; series mostly up to 92.2 µM; activity change, positive = activation: at the top concentration; further: nearly all actives have a fitted effect of over 45% in size; on activity change, positive = activation: % of control where 0% means no effect
Method in brief: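 H1299 (p53-null), stable ts p53-A138V + BP100-Luc; 1000 cells/well, Opti-MEM/10% FBS; cpd 4 pt, 1:5; 24 h, 37 deg C, 5% CO2; detection reagent 10 min RT; luminescence.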
Potency means the concentration at half of the fitted maximal effect; tags describe the fitted curve by direction and shape.

SMILES | activity change, positive = activation | Potency
Cc1ccc(/C=N\NC(=O)COc2ccc(C)cc2[N+](=O)[O-])cc1 | inactive: 4.75% | –
Brc1ccc(C2=CSC3=NCCN23)cc1 | – | inconclusive [activator, single point]
O=S(=O)(c1ccc(NC(=S)N/N=C/c2ccc(O)c(O)c2)cc1)N1CCOCC1 | inactive: 3.61% | –
O=C(N/N=C/c1ccc(-c2cccc([N+](=O)[O-])c2)o1)c1cccs1 | – | inconclusive [activator, partial curve, poor fit]
COc1cccc(/C=N/Nc2ccc([N+](=O)[O-])cc2)c1O | – | inconclusive [activator, full curve, poor fit]
CSc1ccccc1OCc1cc(C(=O)NCc2cccc(C)n2)no1 | – | inconclusive [activator, partial curve, poor fit]
O=C(NCc1cccnc1)C1CCN(S(=O)(=O)c2cc(Cl)ccc2Cl)CC1 | inactive: -0.139% | –
CC(Sc1nc(-c2ccccc2)cc(C(F)(F)F)n1)C(=O)N1CCCC1 (configuration not stated) | – | inconclusive [activator, single point]
O=S(=O)(NC1C2CC3CC(C2)CC1C3)c1ccccc1 (configuration not stated) | inactive: 19.4% | –
COC(=O)c1c(N)sc(Cc2ccccc2)c1C | inactive: -1.79% | –
CC1=CC2=NC(=O)/C(=C\c3cc(C)n(-c4ccccc4)c3C)C(=N)N2O1 | inactive: -9.23% | –
Cc1ccc(-n2c(=O)cc(N3CCCCCC3)[nH]c2=O)cc1 | – | inconclusive [activator, partial curve, poor fit]
O=C(O)CCc1nnc2n(Cc3ccc(F)cc3)c(=O)c3ccccc3n12 | – | inconclusive [activator, single point]
CCN(CC)C(=O)C1CCCN(Cc2ccccc2C(F)(F)F)C1 (configuration not stated) | – | inconclusive [activator, single point]
CC(NC(=O)Cc1ccccc1F)c1ccc(F)cc1 (configuration not stated) | inactive: 19.4% | –
NS(=O)(=O)c1ccc(Nc2nc(-c3ccccc3)cs2)cc1 | – | inconclusive [activator, partial curve, poor fit]
Cc1ccc2oc(=O)c3cnn(CC(=O)N(CCC(C)C)Cc4ccco4)c3c2c1 | inactive: 0.61% | –
COc1ccc(OC)c(NC(=O)Nc2cccc(Cn3cccn3)c2)c1 | – | inconclusive [activator, single point]
COC(=O)CC1=NN(c2ccccc2)C(=O)/C1=C\c1ccc(OC)cc1 | inactive: -8.25% | –
CCc1ccccc1NC(=O)c1cc2sccc2n1C | – | inconclusive [activator, single point]
CCOc1ccc2nc(N3CCCC(C(=O)NCCCN4CCCCC4)C3)sc2c1 (configuration not stated) | – | inconclusive [activator, partial curve, poor fit]
Cc1cnc(C(=O)OCC(=O)c2ccc(C)s2)cn1 | inactive: 10.5% | –
S=C(Nc1cccc2ccccc12)N1CCN(c2ncccn2)CC1 | – | inconclusive [activator, single point]
O=c1/c(=C\c2cccnc2)sc2nc3ccccc3n12 | – | inconclusive [activator, partial curve, poor fit]

SMILES | activity change, positive = activation | Potency
CCCCn1c(NC(=O)c2ccco2)c(S(=O)(=O)c2ccc(C)cc2)c2nc3ccccc3nc21 | inactive: 2.69% | –
COC(=O)c1ccc2c(C)c(C3(O)CCCCC3)[nH]c2c1 | – | inconclusive [activator, single point]
O=C(OCC(=O)N1CCCCC1)c1cc(NS(=O)(=O)c2ccc(Cl)c([N+](=O)[O-])c2)ccc1O | – | inconclusive [activator, partial curve, poor fit]
COc1ccc2[nH]c(C(=O)NCCCN3CCCC3=O)c(C)c2c1 | inactive: 12.2% | –
Cc1ccc(-c2nc3ncccc3o2)cc1NC(=O)c1ccc([N+](=O)[O-])o1 | – | inconclusive [activator, full curve, poor fit]
CCC[C@@H]1CCCC/C=C\CCCC(=O)OCCN1C(=O)OC(C)(C)C | inactive: -0.485% | –
Cc1ccsc1C(=O)NCCc1c[nH]c2ccccc12 | – | inconclusive [activator, partial curve, poor fit]
Cc1cc(C)n(CC(O)Cn2c(C)c(C)c3ccccc32)n1 (configuration not stated) | inactive: -5.34% | –
O=C(Cc1cccs1)Nc1ccccc1-c1nc2ccccc2[nH]1 | inactive: 0.381% | –
CCCOc1ccc(/C=C/C(=O)NC2CCCCC2)cc1 | – | inconclusive [activator, single point]
Nc1nc(-c2ccccn2)nc(N)c1Cc1c(F)cccc1Cl | – | inconclusive [activator, partial curve, poor fit]
CCOC(=O)c1c(C)c(C(=O)Nc2ccccc2)c(C)n1CC | – | inconclusive [activator, single point]
COc1ccccc1C1=NN(C(=S)Nc2ccccc2)C(c2ccco2)C1 (configuration not stated) | – | inconclusive [activator, full curve, poor fit]
Nc1c(C(=O)Nc2ccc3c(c2)OCCO3)nnn1CCc1ccccc1 | – | inconclusive [activator, full curve, poor fit]
O=C(Nc1ccccc1)Nc1snnc1C(=O)Nc1cccc(O)c1 | – | inconclusive [activator, partial curve, poor fit]
O=C(CS(=O)c1ccc(C(F)(F)F)cc1[N+](=O)[O-])Oc1ccc(Cl)cc1 (configuration not stated) | – | inconclusive [activator, single point]
CC(C)CCN1CCN(CC(c2ccccc2)c2ccccc2)CC1CCO (configuration not stated) | inactive: -1.18% | –
CN1CCN(Cc2cc(=O)oc3cc4c(cc23)CCC4)CC1 | – | inconclusive [activator, full curve, poor fit]
CS(=O)(=O)Nc1ccc(C2=NN(S(C)(=O)=O)C(c3ccccc3)C2)cc1 (configuration not stated) | – | inconclusive [activator, partial curve, poor fit]
CCn1cc(CN2CCC(C(=O)Nc3ccc(Oc4ccccc4)nc3)CC2)cn1 | inactive: 2.56% | –
O=C(COc1cc(Cl)c(Cl)cc1Cl)Nc1cccc(O)c1 | – | inconclusive [activator, full curve, poor fit]
O=C(Nc1ccc(Cl)c(Cl)c1)Nc1ccc(N2CCCC2)c(S(=O)(=O)Nc2ccccc2Cl)c1 | inactive: 7.43% | –
Cc1ccc(OCCn2cnc3c(N)ncnc32)cc1 | – | inconclusive [activator, single point]
COCc1c(C(=O)N/N=C(/C)c2ccccc2)nnn1-c1nonc1N | inactive: -1.52% | –

SMILES | activity change, positive = activation | Potency
COc1ccc2c(c1)Cc1sc(NC(=O)c3ccco3)nc1-2 | – | inconclusive [activator, full curve, poor fit]
COc1cc(O)c2c(=O)c3c(OC)c(O)ccc3oc2c1 | – | inconclusive [activator, partial curve, poor fit]
Cc1cccc(NC(=O)c2cc3ccccc3o2)c1 | – | inconclusive [activator, partial curve, poor fit]
CN(C)S(=O)(=O)c1cccc(C(=O)Nc2ccc(Cl)cn2)c1 | – | inconclusive [activator, partial curve, poor fit]
COc1ccc(/C=C2\SC(=O)N(CCNC(=O)C3=COCCO3)C2=O)cc1 | – | inconclusive [activator, partial curve, poor fit]
CCN(CC(=O)Nc1ccccc1C(F)(F)F)C(=O)c1ccccc1SCC(=O)N1CCCC1 | inactive: 0.472% | –
O=C(NC(=S)NC1CCCCC1)c1ccc(F)cc1 | – | inconclusive [activator, full curve, poor fit]
Cc1csc(SCC(=O)Nc2nc3ccccc3s2)n1 | – | inconclusive [activator, partial curve, poor fit]
CC(C)Cn1c(CCCNC(=O)c2ccco2)nc2ccccc21 | inactive: -8.4% | –
Cn1c(/C(C#N)=C(\O)c2ccc(Cl)s2)nc2ccccc21 | – | inconclusive [activator, partial curve, poor fit]
COc1ccccc1-c1nnc2sc(-c3ccc(N(C)C)cc3)nn12 | inactive: 15.8% | –
Cc1nc(SCC(=O)N2CCc3ccccc32)n[nH]1 | – | inconclusive [activator, partial curve, poor fit]
CCc1nnc(NC(=O)c2sc3nc4c(cc3c2N)CCCCCC4)s1 | – | inconclusive [activator, partial curve, poor fit]
Cc1cc(NC(=O)CSc2nc3c(cc2C#N)CCC3)no1 | – | inconclusive [activator, partial curve, poor fit]
COc1ccc(C(NC(=O)C(C)C)c2c(O)ccc3ccccc23)cc1 (configuration not stated) | inactive: 2.12% | –
Cc1cc(NC(=O)CSc2cn(CCNC(=O)c3ccccc3)c3ccccc23)no1 | inactive: 1.27% | –
COc1ccc(NC(=O)Nc2nccs2)cc1 | – | inconclusive [activator, partial curve, poor fit]
CC(OC(=O)C1=Cc2ccccc2OC1)C(=O)NCc1ccco1 (configuration not stated) | inactive: 0.0012% | –
CCOC(=O)C(Cc1ccccc1)NC(=O)CCc1c(C)nc2ncnn2c1C (configuration not stated) | inactive: -0.54% | –
Cc1ccccc1N(C(=O)c1snc(C(N)=O)c1N)C(C(=O)NCC1CCCO1)c1ccc(F)cc1 (configuration not stated) | inactive: -6.55% | –
COc1ccc(C(=O)/C(=C\c2sccc2C)c2nc3ccccc3o2)cc1 | – | inconclusive [activator, partial curve, poor fit]
CSc1ccccc1C(=O)NCc1ccccc1C | inactive: -11.1% | –
COc1ccc(Br)cc1/C=C/C(=O)NC(=S)Nc1ccc(CN2CCOCC2)cc1 | inactive: -3.88% | –
COc1cc2ccccc2cc1C(=O)NC1CCCC1 | – | inconclusive [activator, partial curve, poor fit]

From PubChem BioAssay AID504706 (National Center for Advancing Translational Sciences (NCATS), 2011)
